Data: article PMC4336329 (PLoS ONE, 2015)
Screen size: about 310,000 compounds; about 2,200 (0.71%) showed an effect of 50% or more. Effects have a minus sign here. This is one part of the list.

molecular target: human ether-à-go-go-related gene (hERG) potassium channel (human, UniProt Q12809); assay: primary screen, population patch clamp on CHO cells stably expressing hERG
Sequence (Q12809 whole entry, looked up): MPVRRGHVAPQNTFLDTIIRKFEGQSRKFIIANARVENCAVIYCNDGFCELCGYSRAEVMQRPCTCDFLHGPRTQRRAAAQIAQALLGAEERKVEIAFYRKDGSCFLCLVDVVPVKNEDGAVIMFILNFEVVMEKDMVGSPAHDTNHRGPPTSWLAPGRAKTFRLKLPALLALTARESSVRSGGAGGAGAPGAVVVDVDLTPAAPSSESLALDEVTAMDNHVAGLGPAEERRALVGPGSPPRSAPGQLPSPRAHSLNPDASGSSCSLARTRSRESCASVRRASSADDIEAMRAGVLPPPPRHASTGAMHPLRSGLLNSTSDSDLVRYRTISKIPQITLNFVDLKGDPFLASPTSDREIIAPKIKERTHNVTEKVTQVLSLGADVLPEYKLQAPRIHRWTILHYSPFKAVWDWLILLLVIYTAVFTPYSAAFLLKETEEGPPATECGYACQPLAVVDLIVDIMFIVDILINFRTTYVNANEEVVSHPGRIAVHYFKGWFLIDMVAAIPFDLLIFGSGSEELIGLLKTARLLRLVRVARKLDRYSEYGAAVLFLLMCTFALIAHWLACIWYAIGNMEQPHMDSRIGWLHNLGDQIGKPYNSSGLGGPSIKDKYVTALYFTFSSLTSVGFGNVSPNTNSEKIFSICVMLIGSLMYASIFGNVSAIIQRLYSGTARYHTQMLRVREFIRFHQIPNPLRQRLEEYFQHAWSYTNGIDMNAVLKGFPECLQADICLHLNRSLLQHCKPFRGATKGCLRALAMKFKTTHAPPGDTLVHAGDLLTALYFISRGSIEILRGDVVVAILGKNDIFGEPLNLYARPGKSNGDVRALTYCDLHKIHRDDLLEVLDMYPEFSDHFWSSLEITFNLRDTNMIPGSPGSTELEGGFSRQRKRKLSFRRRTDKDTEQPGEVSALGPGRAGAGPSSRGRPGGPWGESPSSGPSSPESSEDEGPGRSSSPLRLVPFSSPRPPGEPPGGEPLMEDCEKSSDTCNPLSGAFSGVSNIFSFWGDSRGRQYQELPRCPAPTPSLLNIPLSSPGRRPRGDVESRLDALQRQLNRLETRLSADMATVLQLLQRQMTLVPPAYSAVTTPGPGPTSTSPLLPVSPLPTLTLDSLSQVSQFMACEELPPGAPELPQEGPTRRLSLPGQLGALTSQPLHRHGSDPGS

SMILES	hERG current change (%, negative = inhibition) at 1uM [%]
CCN1C(=O)C2C(c3ccccc3F)NC(Cc3ccc(O)cc3)(C(=O)OC)C2C1=O (stereo not drawn)	6.5
COc1ccc(C(=NN)c2ccc(OC)cc2)cc1	3.04
CC(C)OCCCN1C(=O)c2[nH]nc(-c3ccccc3O)c2C1c1cccc(Cl)c1 (stereo not drawn)	-9.21
Cc1noc(C)c1COc1ccccc1C(=O)NCc1ccco1	11.3
O=C(C1CCN(S(=O)(=O)c2cccc3cccnc23)CC1)N1CCn2c1nc1ccccc12	9.93
Cn1c(=O)c(/C(N)=N/OC(=O)c2ccccc2)cn(-c2ccccc2)c1=O	13.9
CCOC(=O)N1CCN(C(=O)C2CCC(=O)N(CCc3ccccc3)C2)CC1 (stereo not drawn)	12.7
CCOc1ccc2nc(N3CCCC(C(=O)N4CCN(CC)CC4)C3)sc2c1 (stereo not drawn)	-1
CC(NC(=S)NC1CCCCC1)C(c1ccccc1)N1CCOCC1 (stereo not drawn)	11.7
C=CCOC(=O)/C(=C\c1ccccc1)NC(=O)c1ccco1	1.39
O=C(Nc1nc2c(s1)CCCC2)c1cccc(S(=O)(=O)N2CCCc3ccccc32)c1	-0.193
Cc1cccc(N2C(=O)CC(Sc3ncn[nH]3)C2=O)c1 (stereo not drawn)	16.9
O=C(Nc1nnc(CC(c2ccccc2)c2ccccc2)s1)c1ccco1	16.6
COCCCNC(=O)c1nc2c(nnn2Cc2cc(C)ccc2C)c(=O)[nH]1	10.5
COC(=O)C1=C(c2ccc(OC(F)(F)F)cc2)C[C@@H]2CC[C@H]1N2C(=O)N1CCOCC1	-0.581
Cc1ccc(NC(=O)c2ccccc2)s1	-5.19
O=C(COC(=O)C1CC2CCCC(C1)C2=O)NNC(=O)c1ccc([N+](=O)[O-])cc1 (stereo not drawn)	-0.218
OCCC1CN(Cc2nc3c(s2)CCCC3)CCN1Cc1ccsc1 (stereo not drawn)	2.76
CCOC(=O)C1(CCOc2ccccc2)CCN(Cc2cccn2-c2cccnc2)CC1	9.53
Cc1ccccc1OCCC(=O)OCC(=O)NCCc1ccc(S(N)(=O)=O)cc1	6.02
COc1ccc(C)cc1NC1=NCCCS1	17.4
CC(=O)Nc1ccc(NC(=O)CSc2n[nH]c(-c3cccs3)n2)cc1	-5.49
Cc1nn(Cc2ccc(Cl)cc2)c(C)c1NC(=O)CCCn1nc([N+](=O)[O-])c(Cl)c1C	-39.3
CC(=O)c1ccc(N2C(=NC(=O)CCc3ccccc3)SC3CS(=O)(=O)CC32)cc1 (stereo not drawn)	10.3
